# Assay results taken from PubChem BioAssay AID463173 (ICCB-Longwood Screening Facility, Harvard Medical School, 2010).
# Among all 52,000 compounds or so, about 1,700 (3.3%) were called active. No stated cut-off is given here; in the data, active means survival mostly below about 52% (no sharp cut-off); inactive means mostly above about 56%. This is one part of the list.
# Test system: Wild type
# Assay: S. aureus survival, RN4220 and DeltatarO strains – OD600, teichoic acid synthesis inhibitors, primary screen (AID 463173)
# Conditions: S. aureus RN4220 wild type/DeltatarO growth, OD600, 18 h, hits give low values, screened at 18.75 µg/mL (by protocol)
row,SMILES,survival
1,CCn1c(=O)cc(OCC(=O)N2CCN(c3ccc(OC)cc3)CC2)c2ccccc21,inactive: 80%
2,CC(C)(C)C(=O)NC1CCN(S(=O)(=O)c2ccc(C(F)(F)F)cc2)CC1,inactive: 98%
3,CNC(=O)c1c(O)c2cc(OC)c(OC)cc2[nH]c1=O,inactive: 103%
4,COc1ccc(NC(=O)CCNS(=O)(=O)c2cccc3nsnc23)cc1Cl,inactive: 59%
5,O=C(O)c1cccc(Nc2nc(-c3ccccn3)cs2)c1,inactive: 112%
6,COc1ccc(CCNC(=O)c2cc3sccc3n2Cc2ccc(Cl)cc2)cc1OC,inactive: 95%
7,CCOc1ccccc1CN1CCc2nc(Nc3ccc4c(c3)OCCO4)ncc2C1,inactive: 83%
8,O=C(NCCc1ccccc1Cl)c1ccc2c(=O)n(-c3ccccc3)c(=O)[nH]c2c1,inactive: 94%
9,CCCS(=O)(=O)N1CC(=O)N(c2ccc(C)cc2)C(C)(C(=O)NC2CCCCCC2)C1 (configuration not stated),inactive: 84%
10,O=C(CSc1nc(Nc2ccc(F)cc2)c2ccccc2n1)c1ccc(F)cc1,inactive: 130%
11,COCC(=O)NCc1ccc2c(c1)OCO2,inactive: 114%
12,CCN(C(=O)Cn1cnc2onc(-c3ccc(F)cc3)c2c1=O)c1ccc(OC)cc1,inactive: 75%
13,Cc1cc(C)c2nc(NC(=O)c3ccc(S(=O)(=O)N4CCc5ccccc54)cc3)sc2c1,inactive: 82%
14,CCN1CCN(c2ccc(N=Cc3ccc(N(C)C)cc3)cc2)CC1,inactive: 94%
15,Cc1ccc(CNc2ncnc3onc(-c4ccc(F)cc4)c23)cc1,inactive: 117%
16,CCOc1ccc(NC(=O)Cn2c(=O)c(CNc3ccc(CC)cc3)cc3cc4c(cc32)OCO4)cc1,inactive: 60%
17,Cc1oc2ncn(CC(C)C)c(=O)c2c1C(=O)NC(C)c1ccccc1 (configuration not stated),inactive: 75%
18,COc1ccc(-c2nnc(SCC(=O)NC3CCCCC3)nc2-c2ccc(OC)cc2)cc1,inactive: 113%
19,COCCn1c(C)cc(O)c(C(c2ccccc2)N2CCN(c3ccccc3)CC2)c1=O (configuration not stated),inactive: 22%
20,COc1ccc(C(=O)Nc2ccc3c(c2)CCCN3C(=O)c2cccs2)c(OC)c1,inactive: 79%
21,COc1cc(OC)c(NC(=O)N2CCCn3nc(C)cc32)cc1Cl,inactive: 60%
22,Cc1cccc(-n2ccnc2SCC(=O)Nc2cccc3ccccc23)c1C,inactive: 68%
23,CCOc1ccc(Nc2nnc(-n3nc(C)cc3C)c3ccccc23)cc1,inactive: 138%

row,SMILES,survival
1,Cc1onc(-c2ccccc2Cl)c1C(=O)NC(C(=O)O)C(C)C (configuration not stated),inactive: 98%
2,O=C(Cn1c(=O)n(Cc2ccc3c(c2)OCO3)c(=O)c2oc3ccccc3c21)Nc1ccccc1F,inactive: 90%
3,COc1ccc(CCNC(=O)C2COc3ccccc3C2)cc1OC (configuration not stated),inactive: 59%
4,O=C1C2C3C=CC(C3)C2C(=O)N1c1ccc(-c2nc3ccccc3o2)cc1 (configuration not stated),inactive: 116%
5,COc1ccc(CCNC(=O)Cc2c(C)c3cc4c(C)coc4c(C)c3oc2=O)cc1,inactive: 109%
6,CCCCSc1nnc2c(n1)OC(C)N(C(C)=O)c1ccccc1-2 (configuration not stated),inactive: 123%
7,CCc1ccccc1NC(=O)CC1Sc2ccc(C(F)(F)F)cc2NC1=O (configuration not stated),inactive: 90%
8,C/C=C/C(=O)N1CCCC(c2nc(-c3cccc(OC)c3)no2)C1 (configuration not stated),inactive: 95%
9,O=C(NCCc1ccccc1)c1ccc2c(c1)N(Cc1ccc(F)cc1)C(=O)c1ccccc1S2,inactive: 78%
10,COc1ccc(C(=O)NC(c2ccc(Cl)cc2)c2cc(Cl)c3cccnc3c2O)cc1 (configuration not stated),inactive: 79%
11,Cn1c(Oc2ccc(Cl)cc2)nc2c1c(=O)n(Cc1ccc(F)cc1)c(=O)n2C,inactive: 74%
12,CCC(C)(C)C(=O)Nc1ccccc1C(C)C,inactive: 107%
13,Cc1cc(C)cc(NC(=O)CCC(=O)N2CCSc3ccccc32)c1,inactive: 84%
14,CCCCN(CC)C(=O)c1cc2c(=O)n3cccc(C)c3nc2s1,inactive: 77%
15,O=C(O)/C(=C\c1ccccc1)NC(=O)c1ccccc1,inactive: 110%
16,Clc1ccc2nc(-c3ccccc3)c(NCc3ccco3)n2c1,inactive: 108%
17,COc1cc(Cl)c(C)cc1NC(=O)c1cnc(N2CCOCC2)c2ccccc12,inactive: 68%
18,Cn1c(SCc2ccc(Br)cc2)nc2c([nH]c3ccccc32)c1=O,inactive: 131%
19,Cc1ccc(S(=O)(=O)NCCc2csc(-c3cccc(F)c3)n2)cc1,inactive: 93%
20,Cc1cccn2c(=O)c3cc(C(=O)Nc4ccc(Cl)c(Cl)c4)sc3nc12,inactive: 71%
21,Cc1cc(C(c2nnnn2Cc2ccccc2)N2CCOCC2)c(C)n1-c1ccc2c(c1)OCO2 (configuration not stated),inactive: 114%
22,Cc1ccc(Nc2ccc(N3CCN(C(=O)c4ccc([N+](=O)[O-])cc4)CC3)nn2)cc1,inactive: 100%
23,CN(C)CCCNC1CS(=O)(=O)CC1O (configuration not stated),inactive: 112%

row,SMILES,survival
1,CCCCNC(=O)Cc1ccc(Br)cc1,inactive: 120%
2,Cc1ccc(C)c(NS(=O)(=O)c2cc3c4c(c2)C(C)C(=O)N4CCC3)c1 (configuration not stated),inactive: 124%
3,Cc1nc2ccn(Cc3ccco3)c(=O)c2cc1C(=O)NCc1ccc(F)cc1,inactive: 71%
4,CCC(c1nnnn1Cc1ccccc1)N1CCN(c2cccc(Cl)c2)CC1 (configuration not stated),inactive: 105%
5,CCOC(=O)c1cccc(NS(=O)(=O)c2cc3c(cc2C)NC(=O)CO3)c1,inactive: 90%
6,O=C(c1ccc(Nc2nc3ccccc3n3nnnc23)cc1)N1CCN(c2cccc(C(F)(F)F)c2)CC1,inactive: 83%
7,Cc1ccc(NC(=O)CN2C(=O)CC(C)Sc3ccccc32)c(C)c1 (configuration not stated),inactive: 84%
8,Cc1c(Cl)cccc1-n1ncc(C(=O)N2CCOCC2)c1C1CCN(C(=O)OC(C)(C)C)CC1,inactive: 101%
9,CCNC(=O)Cn1nc(C)n2c(cc3c(OC)cccc32)c1=O,inactive: 85%
10,Cc1oc2ccc(O)c(CN3CCOCC3)c2c1C(=O)Nc1cccc(Cl)c1C,inactive: 84%
11,Cc1ccc(NC(=O)C2CCN(c3nnc(C)c4c(C)n(-c5ccccc5)nc34)CC2)cc1Cl,inactive: 83%
12,Cc1ccc(OCC(=O)OCc2cc(=O)n3nc(C4CC4)sc3n2)cc1,inactive: 117%
13,On1ccc2c(Br)cncc21,inactive: 106%
14,Cc1cc(C)n(C(C)CC(=O)NCc2ccc(Cl)cc2)n1 (configuration not stated),inactive: 66%
15,Cc1ccc(OCCCSc2nc(-c3ccc(C(C)(C)C)cc3)nc3cc(=O)[nH]n23)cc1C,inactive: 49%
16,COCCCNC(=O)C1CCN(c2cc(C)nc3c(-c4ccc(Cl)cc4)c(C)nn23)CC1,inactive: 77%
17,CCN(CC)CCCNC(=O)c1ccc2c(Cl)c3c(nc2c1)CCCC3,inactive: 86%
18,CCc1nn2c(=O)cc(COC(=O)C(CC)c3ccccc3)nc2s1 (configuration not stated),inactive: 73%
19,CCOC(=O)c1c(Oc2ccc(C(C)=O)cc2)nnc(-c2ccccc2)c1-c1ccccc1,inactive: 92%
20,CCOC(=O)Cn1c(=O)n(-c2ccccc2OC)c2nc(-c3ccc(C(C)C)cc3)nc(C(N)=O)c21,inactive: 82%
21,O=C1C(=Cc2ccc3c(c2)OCO3)C(=O)c2ccccc21,inactive: 109%
22,CC(C)CC1Nc2ccc(C(=O)NCCCOC(C)C)cc2NC1=O (configuration not stated),inactive: 67%
23,COc1ccc(C(=O)NCCn2cc(SCC(=O)Nc3ccc4c(c3)OCCO4)c3ccccc32)cc1OC,inactive: 74%

row,SMILES,survival
1,O=C(CC1N=C2c3ccccc3N=C(SCC(=O)Nc3ccc(F)cc3)N2C1=O)NCc1cccs1 (configuration not stated),inactive: 71%
2,CCCN1C2=C(C(=O)CCC2)C(c2ccc(F)cc2)C2=C1c1ccccc1C2=O (configuration not stated),inactive: 109%
3,COc1ccc(CC(=O)N2CCc3cc(OC)c(OC)cc3C2COc2ccc(F)cc2)cc1OC (configuration not stated),inactive: 63%
4,O=C(NCc1ccccc1)c1ccc2oc(=O)n(Cc3ccccc3)c2c1,inactive: 71%
5,C=CCc1cccc2cc(NC(C)=O)c(=O)oc12,inactive: 104%
6,COc1ccc2c(CNCc3cccs3)c(C(=O)O)n(Cc3ccccc3F)c2c1,inactive: 89%
7,CN(C)c1ccc(NC(=O)CSC2=Nc3ccccc3C3=NC(CCC(=O)NCc4cccs4)C(=O)N23)cc1 (configuration not stated),inactive: 63%
8,Cc1c(C(=O)NC(C)c2ccccc2)sc2nc3n(c(=O)c12)CCCC3 (configuration not stated),inactive: 87%
9,NS(=O)(=O)c1ccc2nc(NC(=O)COc3ccc(Cl)cc3Cl)sc2c1,inactive: 70%
10,CCOC(=O)c1c(-c2cccs2)csc1NC(=O)C(F)(F)F,inactive: 106%
11,COCCNC(=O)c1ccc2c(c1)N=C(C)c1cc(C)ccc1S2,inactive: 80%
12,Cn1c(SCC(=O)Nc2nc3ccccc3s2)ncc(C(=O)Nc2ccc(F)cc2)c1=O,inactive: 60%
13,CC(C)NC(=O)Cn1ccc2ccc(C#N)cc21,inactive: 104%
14,COc1cccc(C(=O)Nc2cccc(C(=O)OCc3cc(=O)n4c(C)csc4n3)c2)c1,inactive: 133%
15,CC1CCN(C(=O)c2cccc(NC(=O)c3nsc4ccccc34)c2)CC1,inactive: 69%
16,CCOC(=O)COc1ccc(C)cc1C(=O)c1ccn2nc(-c3ccc(F)cc3)cc2n1,inactive: 69%
17,Cc1nc2cc(-c3ccccc3)sc2c(=O)n1N,inactive: 118%
18,CCOc1ccc(-n2nc3ccc(NC(=O)c4ccc(-c5cccc(Cl)c5)o4)cc3n2)cc1,inactive: 66%
19,Cc1nc2scc(C)n2c(=O)c1S(=O)(=O)Nc1cccc(C(F)(F)F)c1,inactive: 94%
20,COc1ccccc1Cc1nc2ccccc2nc1SCC(=O)NCc1ccccc1Cl,inactive: 131%
21,O=C(O)C1CCCN1C(=O)C12CC3CC(CC(C3)C1)C2 (configuration not stated),inactive: 116%
22,N=Nc1c(O)n(CC(=O)Nc2ccccc2)c2ccccc12,inactive: 112%
23,CN1CCc2nc3sc(C(=O)Nc4ccccc4C(F)(F)F)c(N)c3cc2C1,inactive: 153%
